Laboratory results reported in PubChem BioAssay AID1452 (National Center for Advancing Translational Sciences (NCATS), 2008).
Screen size: about 150,000 compounds; about 190 (0.13%) were called active. Inconclusive means that the source gave no clear call. Such entries were picked first, then a sample of the others. The call rests on the fitted dose curve; in most records, active means well fitted inhibition curve with a large enough effect; inconclusive means small, poorly fitted or top-dose-only effect; inactive means flat fitted curve, though single readings scatter. Potencies of inconclusive entries are doubtful fits and often do not repeat.

biological target: Polyunsaturated fatty acid lipoxygenase ALOX12 (Homo sapiens) (UniProt P18054); assay: qHTS Assay for Inhibitors of 12-hLO (12-human lipoxygenase); conditions: purified 12-hLO, xylenol orange hydroperoxide absorbance; series mostly up to 57.1 µM; activity change, negative = inhibition: at the top concentration; further: nearly all actives have a fitted effect of over 55% in size
Chain of UniProt P18054 (P18054 whole entry, looked up): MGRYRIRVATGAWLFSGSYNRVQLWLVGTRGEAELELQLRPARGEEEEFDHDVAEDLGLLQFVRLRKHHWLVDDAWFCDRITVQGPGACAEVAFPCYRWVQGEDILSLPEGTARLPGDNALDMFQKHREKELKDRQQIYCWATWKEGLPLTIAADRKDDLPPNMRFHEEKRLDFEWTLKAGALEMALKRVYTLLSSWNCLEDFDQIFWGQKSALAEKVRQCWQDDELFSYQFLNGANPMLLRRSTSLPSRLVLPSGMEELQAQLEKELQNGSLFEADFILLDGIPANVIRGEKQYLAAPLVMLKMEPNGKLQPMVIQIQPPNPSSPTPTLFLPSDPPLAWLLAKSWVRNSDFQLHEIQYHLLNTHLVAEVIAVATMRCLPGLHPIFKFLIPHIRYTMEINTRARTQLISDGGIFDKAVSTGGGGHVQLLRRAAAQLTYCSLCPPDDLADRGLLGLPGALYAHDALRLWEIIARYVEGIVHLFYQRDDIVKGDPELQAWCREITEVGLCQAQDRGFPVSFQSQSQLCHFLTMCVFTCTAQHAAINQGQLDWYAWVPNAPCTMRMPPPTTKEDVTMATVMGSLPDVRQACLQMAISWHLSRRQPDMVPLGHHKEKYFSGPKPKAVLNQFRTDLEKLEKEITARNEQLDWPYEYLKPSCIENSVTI
Summary of the method: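 Lipoxygenase turnover measured by absorbance at 573 and 405 nm after Fe-XO development. Human 12hLO 150 nM, arachidonate 40 uM, pH 7.0 Hepes buffer with detergent; 15 min compound preincubation, 30 min reaction.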
On the % scale 0 is the no-effect control and ±100 the full control effect; potency means the concentration at half of the fitted maximal effect; tags describe the fitted curve by direction and shape.

Compound	Potency	activity change, negative = inhibition
Cn1c(-c2ccc(F)cc2)cnc1NCc1ccc(F)cc1	inconclusive: 39.8 µM [inhibitor, single point]	–
CCCCC/C=C\C/C=C\C/C=C\C=C\C(O)CCCC(=O)O (stereo not drawn)	–	inactive: -2.76%
Cc1ccc(C)c(NC(=S)N/N=C2/CCCCc3ccccc32)c1	inconclusive: 14.1 µM [inhibitor, partial curve]	–
Nc1cc(-c2ccccc2)ccc1O	inconclusive: 25.1 µM [inhibitor, partial curve]	–
CC(=O)N1CCN(c2ccc(NCc3ccccc3)cc2)CC1	inconclusive: 25.1 µM [inhibitor, single point]	–
CCOC(=O)C1=C(NC(=S)NC(=O)c2ccccc2)c2ccccc2CC1(C)C	active: 25.1 µM	–
Oc1ccccc1C=NC1=NN(c2cccc(C(F)(F)F)c2)CC1	inconclusive: 28.2 µM [inhibitor, partial curve]	–
CCCn1c(-c2ccc(F)cc2)nc2c(NCCCCN(CC)CC)nc(C)nc21	–	inactive: 2.62%
Cc1ccsc1/C=N/Nc1nc2ccccc2s1	inconclusive: 20 µM [inhibitor, partial curve]	–
COc1cccc(NC(=S)N/N=C2/CCCCc3ccccc32)c1	inconclusive: 25.1 µM [inhibitor, single point]	–
Cc1cc(/C=N/NC(N)=S)c(C)n1-c1ccc(Cl)c(Cl)c1	inconclusive: 25.1 µM [inhibitor, single point]	–
S=C1NC(c2cccs2)=CC(c2ccc(Br)cc2)N1 (stereo not drawn)	inconclusive: 15.8 µM [inhibitor, partial curve]	–
Cc1cccc(NC(=S)NC(=O)c2cc(-c3ccccc3)nc3ccccc23)c1	inconclusive: 17.8 µM [inhibitor, partial curve]	–
CCCCOc1cccc(C(=O)NC(=S)Nc2cccnc2)c1	–	inactive: -8.25%
CCOC(=O)N1CCN(c2c(-c3ccc(C(C)C)cc3)c(=O)c2=O)CC1	inconclusive: 28.2 µM [inhibitor, single point]	–
Cc1oc(=O)c(NC(=O)c2ccc(Cl)cc2)cc1C(=O)c1ccccc1	inconclusive: 20 µM [inhibitor, single point]	–
CNC(=S)N/N=C/c1cn(CCOc2cccc(OC)c2)c2ccccc12	inconclusive: 25.1 µM [inhibitor, single point]	–
O=C(COC(=O)c1ccc2ncsc2c1)Nc1ncc(Cl)cc1Cl	–	inactive: -1.58%
O=C(CSc1nnc(-c2ccncc2)n1Cc1ccco1)Nc1nccs1	–	inactive: -1.33%
O=[N+]([O-])c1ccc(N2CCN(C(=S)NC3CCCCC3)CC2)cc1	inconclusive: 25.1 µM [inhibitor, partial curve]	–
CC(=O)N1c2ccc(S(=O)(=O)CCC(=O)O)cc2CC1C (stereo not drawn)	–	inactive: 0.652%
Cc1nc(C)c(C(=O)C2=C(O)C(=O)N(CCN(C)C)C2c2ccccc2)s1 (stereo not drawn)	–	inactive: 4.83%
CCC1CCC2(CC1)NC(CO)(CO)CO2 (stereo not drawn)	–	inactive: 2.69%
O=C(CC(=O)c1ccccc1O)c1ccc(F)cc1	inconclusive: 2.51 µM [inhibitor, partial curve]	–

Compound	Potency	activity change, negative = inhibition
CC(C)=C1C(=O)NN(c2ccc(F)c(Cl)c2)C1=O	inconclusive: 15.8 µM [inhibitor, partial curve]	–
CN1CCN(S(=O)(=O)c2ccc(NC(=S)NC(=O)c3ccccc3)cc2)CC1	–	inactive: -0.964%
O=C(NC(=S)Nc1ccccc1N1CCCC1)c1ccc([N+](=O)[O-])cc1	inconclusive: 17.8 µM [inhibitor, partial curve]	–
Cc1cc2n(n1)SC(Nc1cccc3ccccc13)N2 (stereo not drawn)	inconclusive: 22.4 µM [inhibitor, partial curve]	–
COc1ccccc1NC(=S)NCCSc1ccc(Cl)cc1	inconclusive: 28.2 µM [inhibitor, single point]	–
COc1ccc(N2CCN(C(=O)C(C)(C)Oc3ccc(Cl)cc3)CC2)cc1	–	inactive: 0.992%
COC(=O)c1ccc(C(NC(=O)OCc2ccccc2)/C(F)=C/[C@@H](C)C(=O)NCc2cc(C)on2)cc1 (stereo partly drawn)	–	inactive: -0.83%
COc1ccc(OC)c(CN2CCN(C(=O)c3cccs3)CC2)c1	–	inactive: -5.09%
O=S(=O)(c1ccccc1)c1cccc(S(=O)(=O)N2CCCCC2)c1	–	inactive: -3.73%
C=CCN(CC=C)C(=S)NC(=O)c1ccc(-c2ccccc2)cc1	inconclusive: 28.2 µM [inhibitor, single point]	–
COC(=O)c1c(-c2cc(OC)c(OC)c(OC)c2)c2ccc(OCc3ccccn3)cc2c(=O)n1-c1ccc(N)cc1	inconclusive: 15.8 µM [inhibitor, partial curve]	–
COc1cccc(-c2cnc(NCc3cc(Cl)ccc3O)n2C)c1	inconclusive: 15.8 µM [inhibitor, partial curve]	–
Cc1ccc(S(=O)(=O)NNc2ccccc2)c(C)c1	inconclusive: 12.6 µM [inhibitor, partial curve]	–
CCOCCCNC(=O)CN(Cc1ccc(Cl)cc1)S(C)(=O)=O	–	inactive: -0.507%
CCc1cccc(C)c1NC(=S)NCc1ccccc1	inconclusive: 31.6 µM [inhibitor, single point]	–
Oc1cc2c(cc1O)CN(C(=S)NCCc1ccc(Cl)cc1)CCC2	inconclusive: 12.6 µM [inhibitor, partial curve]	–
Cc1ccc(N=Cc2cccc(O)c2O)c(C)c1	inconclusive: 12.6 µM [inhibitor, partial curve]	–
O=C(NC(=S)N(Cc1ccccc1)Cc1ccccc1)C1CCCCC1	inconclusive: 28.2 µM [inhibitor, partial curve]	–
COc1cc(/C=N/N2C(=O)CSC2=S)ccc1O	inconclusive: 28.2 µM [inhibitor, single point]	–
CCCNC(=O)C1CNc2ccccc2O1 (stereo not drawn)	–	inactive: -0.158%
CCOC(=O)c1ccc(N2C(=O)CC(N3CCC(O)(c4ccc(Cl)cc4)CC3)C2=O)cc1 (stereo not drawn)	–	inactive: -1.23%
Cc1ccc(-c2nnc(N3CCCCC3)c3ccccc23)cc1S(=O)(=O)N1CCN(C)CC1	–	inactive: -3.83%
CC(C)(CNC(=S)NCCc1ccccc1)CNC(=S)NCCc1ccccc1	inconclusive: 31.6 µM [inhibitor, single point]	–
Cc1cc(C)c2c(c1)-c1c(ssc1=S)C(C)(C)N2C(=O)CSc1nncn1C	inconclusive: 25.1 µM [inhibitor, partial curve]	–
